The source gives no read counts; variants with many changes may rest on few reads.

Data on 21 variants can be found in the RNAGym collection of RNA variant scans (doi:10.7554/elife.90254).

To fix the notation:
B1: OR4K15 (parent)
chain: GUUAACGGUCAUAGGCCAUGGAAACUAGGAGCACCAUUUCGCUGCCAGUGAAGAAAUGAACAAAGAAAAUCUGGGCCAGGCAGGCAUCAAAAGAAAUAGUCUUGCGCUCAACCAGAAAGUCUGUAAUCAUUUUAAGGGUA

The variants in the series derive from B1. The series is described as follows: self-cleavage, relative activity (ratio to wild type); higher = more cleavage; in vitro, sequencing; the parent is a self-cleaving ribozyme.
GUUAACGGUCAUAGGCCAUGGAAACUAGGAGCACCAUUUCGCUGCCGGUGAAGAAAUGAACAAAGAAAAUCUGGGCUAGGCAGGCAUCAAAAGAAGUAGUCUUGCGCUCAACCAGAAAGUCUGUAAUCACUUUAAGGGCA [A47G C77U A96G U130C U139C]: the self-cleavage was 2.17. The figure for GUUAACGGUCAUAGGCCAUGGAAACUAGGAGCACCAUUUCGCUGCCGGUGAAGAAAUGAACAAAGAAAAUCUGGGCCAGGCAGGCAUCAAAAGAAAUAGUCUUGCGCUCAACCAGAAAAUCAGUAAUCAUUUUAAGGGUG [A47G G119A U122A A140G] is 1.59. The figure for GUUAACGGUCAUAGGCCAUGGAAACUAGGAGCACCAUUUCGCUGCCGGUGAAGAAACGAACAAGGAAAAUCUGGGCCAGGCAGGCUUCAAAAGAAAUAGUCUUGCGCUCAACCAGAAAGUCUGUAAUCAUUUUAAGGGUA [A47G U57C A64G A86U] is 1.42. With GUUAACGGUCAUAGGCCAUGGAAACUAGGAGCACCAUUUCGCUGCCGGUGAAGAAAUGAACAAAGAAAAUCUGGGCCAGGCAGGCAUCAAAAGAAAUAGUCUUGCGCUCUACCAGAAAGUCUGUAAUCAUUUUAAGGGUG [A47G A110U A140G], the self-cleavage was 0.76. Take GUUAACGGUCAUAGGCCAUGGAAACUAGGAGCACCAUUUCGCUGCCGGCGAAGAAAUGAACAAAGAAAAUCUGUGCCAGGCAGGCAUCAAAAGAAAUAGUCCUGCGCUCAACCAGAAAGUCUGUAAUCAUUUUAAGGGUA [A47G U49C G74U U102C]: the self-cleavage worked out at 0.18. The figure for GUUAACGGUCAUAGGCCAUGGAAACUAGGAGCACCAUUUCGCUGCCGGUGAAGAAAUGAACAAAGAAAAUCUGGGCCAGGCAGGCAUCAAAAGAAAUAGUCUUGCGCUCAACCAGAGAGUCUGUAAUCAUUUAAAGGGUA [A47G A117G U133A] is 1.01; for GUUAACGGUCAUAGGCCAUGGAAACUAGGAGCACCAUUUCGCUGCCGGCGAAGGAAUGAACAAAGAAAAUCUGGGCCAGGCAGGCAUCAAAAGAAAUAGUCUUGCGCUCAACCAGAAAGUCUGUAGUCAUUCUAAGGGUA [A47G U49C A54G A126G U132C] it is 1.15; for GUUAACGGUCAUAGGCCAUGGAAACUAGGAGCACCAUUUCGCUGCCGGCGAAGAAAUGAACAAAGAGAAUCUGGGCCAGGCAGGCAUCAAAGGAAAUAGUCUUGCGCUCAACCAGAAAGUCUGUAAUCAUUUUAAGGGUA [A47G U49C A67G A92G] it is 0.59. The figure for GUUAACGGUCAUAGGCCAUGGAAACUAGGAGCACCAUUUCGCUGCCGGUGAAGAAAUGAACAAAGAAAAUCUGGGCCAGGCAGGCAUCAAAAGAAAUAGUCUUGCGCUCAACCAGAGAGACUGUAACCAUUUUAAGGGUA [A47G A117G U120A U127C] is 0. As for GUUAACGGUCAUAGGCCAUGGAAACUAGGAGCACCAUUUCGCUGCCGGUGAAGAAAUGAACAAAGAAAAUCUGAGCCAGGCAGGCAUCAAAAGAGAUAGUCUUGCGCUCGACCAGAAGGUCUGUAAUCAUUUUGAGGGUA [A47G G74A A95G A110G A118G A134G], the self-cleavage was 0.02. The figure for GUUAACGGUCAUAGGCCAUGGAAACUAGGAGCACCAUUUCGCUGCCGGAGAAGAAGUGAACAAAGAAAAUCUGGGCCAGGCAGGCAUCAAAAGAAAUAGUCUUGUGCUCAACCAGAAAGUCUGUAAUCAUUUUAAGGGUA [A47G U49A A56G C105U] is 0.02.

As for GUUAACGGUCAUAGGCCAUGGAAACUAGGAGCACCAUUUCGCUGCCGGCGAAGAAAUGAACAAAGGAAAUCUGGGCCAGGCAGGCUUCAAAAGAAAUAGUCUUGCGCUCACCCAGAAAGUCUGUAAUCAUUUUAAGGGUA [A47G U49C A66G A86U A111C], the self-cleavage came out at 0.02.

GUUAACGGUCAUAGGCCAUGGAAACUAGGAGCACCAUUUCGCUGCCGGUGAAGAAAUGAACAAAGAAAAACUGGGCCAGGCAGGCAUCAAAAGAAAUAGUCUUGCACUCAGCCAGAAAGUCUGUAAUCAUUUUAAGGGUA [A47G U70A G106A A111G]: the self-cleavage amounted to 0.02.

Take GUUAACGGUCAUAGGCCAUGGAAACUAGGAGCACCAUUUCGCUGCCGGUGAAGAAAAGAACAAAGAAAAUCUGAGCCAGGCAGGCAUCAAAAGAAAUAGUCUUGCGCUCAACCAGAAGGUCUGUAAUCAUUUUAAGGGUA [A47G U57A G74A A118G]: the self-cleavage came to 0.05. The figure for GUUAACGGUCAUAGGCCAUGGAAACUAGGAGCACCAUUUCGCUGCCGGUGAAGAAAUGAACAAAGAAAAUCUGGGCCAGGCAGGCAUCAAAAGAAAUAGUCUUGCGCUCAACCUGAAAGCCUGUAAUCACUUUAAGGGUA [A47G A114U U120C U130C] is 0; for GUUAACGGUCAUAGGCCAUGGAAACUAGGAGCACCAUUUCGCUGCCGGUGAAGAAAUGAACAAAGAAAAUCUGGGCCAGGCAGGCAUCAAAAGAAAUAGUCUUGCGCUCAACCGGAAAGUCUGUAAUCGUUUUAAGGGUA [A47G A114G A129G] it is 0.06. The figure for GUUAACGGUCAUAGGCCAUGGAAACUAGGAGCACCAUUUCGCUGCCGGUGAAGAAACGAACAAAGAAAAUCUGGGCCGGGCAGGCAUCAAAAGUAAUAGUCUUGCGCUCAACCAGAAAGCCUGUAAUCAUUUUAAGGGUA [A47G U57C A78G A94U U120C] is 0.09; for GUUAACGGUCAUAGGCCAUGGAAACUAGGAGCACCAUUUCGCUGCCGGUGAAGAAAUGAACAAAGAAAAUCUGGGCCAGGCAGGCAUCAAAAGAAAUAGUCUUGCGCUCAACCAGAAUGUCCGUAAUCGUUUUAAGGGUA [A47G A118U U122C A129G] it is 0.17. The figure for GUUAACGGUCAUAGGCCAUGGAAACUAGGAGCACCAUUUCGCUGCCGGUAAAGAAAUGAACAAAGAAAAUCUGGGCCAGGCAGGCAUCAAAAGAAAUAAUCUUGCGCUCAACCAGAAAGUCUGUAAUCAUUUUAAGGGUA [A47G G50A G99A] is 0.68; for GUUAACGGUCAUAGGCCAUGGAAACUAGGAGCACCAUUUCGCUGCCGGCAAAGAAAUGAACAAAGAAAAUCUGGGCCGGGCAGGCAUCAAAAGAAAUAGUCUUGCGCUCAACCAGAAAGUCUGUAAUCAUCUUAAGGGUA [A47G U49C G50A A78G U131C] it is 0.05; for GUUAACGGUCAUAGGCCAUGGAAACUAGGAGCACCAUUUCGCUGCCGGUGAAGAAACGAACGAAGAAAAUCUGGGCCAGGCAGGCAUCAAAAGAAAUAGUCUUGCGCUCAACCAGAAAGUCUGUAAUCAUUUUAAGGGUA [A47G U57C A62G] it is 0.92.
